Laboratory results as given in PubChem BioAssay AID588342 (National Center for Advancing Translational Sciences (NCATS), 2011).
The campaign covered roughly 360,000 compounds. About 25,000 (6.9%) were called active. The shares of active, inactive and inconclusive entries below differ from those in the screen. Calls follow the shape of the dose curve; as a rule, active = well fitted inhibition curve with a large enough effect; inconclusive = small, poorly fitted or top-dose-only effect; inactive = flat fitted curve, though single readings scatter. Potencies beside an inconclusive call are fits to weak or partial responses and may not hold up.

What follows are compounds tested against Luciferin 4-monooxygenase (Photinus pyralis) (UniProt P08659) (assay: qHTS profiling assay for firefly luciferase inhibitor/activator using purifed enzyme and Km concentrations of substrates (counterscreen for miR-21 project)). Conditions: purified FLuc, luminescence inhibition; activity change, negative = inhibition: at 57.5 µM (top of the series).
Chain of UniProt P08659 (P08659 whole entry, looked up): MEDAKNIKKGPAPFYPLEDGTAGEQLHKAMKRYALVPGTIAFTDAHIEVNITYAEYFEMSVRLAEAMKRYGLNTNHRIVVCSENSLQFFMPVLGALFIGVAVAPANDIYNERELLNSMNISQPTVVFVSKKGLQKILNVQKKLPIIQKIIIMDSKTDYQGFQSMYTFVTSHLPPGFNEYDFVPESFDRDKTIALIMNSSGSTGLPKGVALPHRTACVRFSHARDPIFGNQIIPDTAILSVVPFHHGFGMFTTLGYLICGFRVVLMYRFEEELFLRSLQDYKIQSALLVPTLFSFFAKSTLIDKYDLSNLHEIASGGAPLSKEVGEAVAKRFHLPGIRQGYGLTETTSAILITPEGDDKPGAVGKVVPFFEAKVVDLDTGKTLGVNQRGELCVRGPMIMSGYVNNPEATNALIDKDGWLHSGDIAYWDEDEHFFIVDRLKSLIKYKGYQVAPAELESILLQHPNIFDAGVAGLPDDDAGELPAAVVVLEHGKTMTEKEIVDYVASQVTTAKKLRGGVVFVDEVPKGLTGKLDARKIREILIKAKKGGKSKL
Method in brief: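 Purified P. pyralis luciferase (10nM final) with 10uM D-luciferin and 10uM ATP (Km levels) in 50mM Tris acetate pH 7.5, 10mM Mg acetate, 0.01% Tween-20, 0.05% BSA; qHTS 6-point titration, ~60 µM downward; luminescence read.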
Also: nearly all actives have a fitted effect of over 55% in size.
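For activity change, negative = inhibition in this document: plate controls were vehicle for no effect and reference inhibitor for full effect.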
Potency is read from the fitted curve at half-maximal effect; tags tell the direction and shape of the fitted curve.

SMILES	Potency	activity change, negative = inhibition
Cc1ccc(S(=O)(=O)Nc2cccc(-c3cn4ccsc4n3)c2)cc1	inconclusive: 37.9 µM [inhibitor, partial curve, poor fit]	
O=C(Nc1cc(Cl)ccc1N1CCCCC1)c1cccs1		inactive: -0.191%
CC(C)C(=O)Nc1cccc(C(=O)Nc2nnc(C(C)C)s2)c1	inconclusive: 37.9 µM [inhibitor, single point]	
Cc1ccc(/C=N/NC(=S)NC2CCCCC2)o1	inconclusive: 26.9 µM [inhibitor, single point]	
CC(Cc1ccco1)NC(=O)c1cccc(S(=O)(=O)N(C)C)c1 (centres undefined)	inconclusive: 23.9 µM [inhibitor, partial curve]	
COc1ccc(S(=O)(=O)N2CCOC23CCN(S(=O)(=O)c2cc(C)ccc2OC)CC3)cc1		inactive: 6.59%
Clc1ccc2[nH]c3c(c2c1)CCc1cn[nH]c1-3	inconclusive: 23.9 µM [inhibitor, single point]	
COc1cc(N)ccc1NC(=O)c1cc2ccccc2o1	active: 10.7 µM	
CSc1nc(-c2ccco2)nn1S(=O)(=O)c1ccc(C)cc1		inactive: -6.85%
O=C1c2ccccc2C(=O)N1/N=C/c1ccc(O)c(O)c1	inconclusive: 6.75 µM [inhibitor, single point]	
CCN(Cc1cccc(F)c1)C(=O)c1ccc2ccccc2n1	inconclusive: 33.8 µM [inhibitor, partial curve, poor fit]	
O=C(O)CCN1C(=O)/C(=C/c2ccc(-c3nc4ccccc4s3)o2)SC1=S	inconclusive: 10.7 µM [inhibitor, partial curve, poor fit]	
COc1cccc(C2Nc3ccccc3-c3nnc(SCc4ccccc4)nc3O2)c1OC (centres undefined)	inconclusive: 23.9 µM [inhibitor, partial curve]	
Cc1[nH]n(-c2nc(-c3cccc([N+](=O)[O-])c3)cs2)c(=O)c1C	active: 4.78 µM	
c1coc(C2Nc3ccccc3-c3nc4ccccc4n32)c1 (centres undefined)	active: 21.3 µM	
Cn1c(=O)c([N+](=O)[O-])c(-n2ccnc2)c2ccccc21	inconclusive: 26.9 µM [inhibitor, partial curve, poor fit]	
Nc1c(C(=O)Nc2ccc(Cl)cc2F)sc2nc(-c3cccs3)ccc12		inactive: -11%
Cc1ccc(NC(=O)C2CC(=O)N/C(=N/NC(=O)c3ccc(C)cc3)S2)cc1 (centres undefined)	inconclusive: 30.1 µM [inhibitor, single point]	
COc1ccc(-c2nc(SCC(=O)N3CCC(C)CC3)n[nH]2)cc1	inconclusive: 37.9 µM [inhibitor, single point]	
O=C(O)C1Cc2ccccc2CN1S(=O)(=O)/C=C/c1ccccc1 (centres undefined)	inconclusive: 37.9 µM [inhibitor, partial curve, poor fit]	
NC(=O)NCCCC(=O)OCC(=O)c1ccc2ccccc2c1	inconclusive: 23.9 µM [inhibitor, partial curve]	
O=C(Cc1csc(N2CCOCC2)n1)N/N=C/c1ccc(Cl)cc1Cl	inconclusive: 23.9 µM [inhibitor, single point]	

SMILES	Potency	activity change, negative = inhibition
COc1ccc2sc(N3C(=O)C4CC=C(C)CC4C3=O)nc2c1 (centres undefined)	inconclusive: 26.9 µM [inhibitor, partial curve, poor fit]	
[O-][n+]1c2ccccc2cc2ccccc21		inactive: -10.9%
O=C(N/N=C/c1c[nH]c2ccc(Br)cc12)c1ccncc1		inactive: 3.22%
COc1ccc(CN2C(=O)c3ccccc3C(/C=N\OCc3ccc(C)cc3)C2=O)cc1 (centres undefined)	active: 16.9 µM	
CCOC(=O)NCc1ccc2[nH]c(C)cc2c1	inconclusive: 26.9 µM [inhibitor, partial curve, poor fit]	
S=c1nc(-c2sccc2OCc2ccc(Cl)cc2Cl)[nH][nH]1	inconclusive: 23.9 µM [inhibitor, single point]	
N#C/C(=N\Nc1cccc([N+](=O)[O-])c1)C(=O)c1ccc(Br)cc1	inconclusive: 23.9 µM [inhibitor, single point]	
CCOC(=O)Nc1ccc2c(c1)OCO2	inconclusive: 37.9 µM [inhibitor, single point]	
O=C(CCCc1ccccc1)c1ccccc1	active: 0.757 µM	
CCCCOc1ccc(-c2ncc([N+](=O)[O-])cn2)cc1	inconclusive: 1.69 µM [inhibitor, partial curve, poor fit]	
O=C(NCCc1ccccc1)c1ccccc1NC(=O)C1CCCO1 (centres undefined)	inconclusive: 23.9 µM [inhibitor, partial curve]	
CCn1c(SCC(=O)Nc2ccc(N(C)C)cc2)nnc1-c1cccc(C)c1	inconclusive: 23.9 µM [inhibitor, partial curve]	
Cc1ccc(N(CC(=O)Nc2ccc(Br)c(C)c2)S(=O)(=O)c2cccs2)cc1		inactive: -0.181%
CCO/C=C1\C(=O)N(c2ccc(OCC)cc2)C(=O)c2ccccc21	inconclusive: 37.9 µM [inhibitor, single point]	
Cc1nc(-c2ccccc2)sc1C1(C)CC(c2ccc([N+](=O)[O-])cc2)=NO1 (centres undefined)	inconclusive: 37.9 µM [inhibitor, partial curve, poor fit]	
O=C(/C=C/c1ccc(Br)cc1)NC(=S)N1CCOCC1	active: 13.5 µM	
COc1ccc(/C=C2\CCCc3c2nc2ccc(C)cc2c3C(=O)O)cc1O	inconclusive: 30.1 µM [inhibitor, single point]	
CCNc1nc(CC)nc2c1oc1ccccc12	inconclusive: 30.1 µM [inhibitor, partial curve, poor fit]	
C=CCOc1cccc(C(=O)N2CCCC(CNS(=O)(=O)c3cccs3)C2)c1 (centres undefined)		inactive: 5.53%
CCCCNC(=S)N1CCC(Cc2ccccc2)CC1	inconclusive: 26.9 µM [inhibitor, single point]	
Cc1nn(-c2ccccc2)c(Cl)c1/C=N\NC(=O)c1cncc(Br)c1	inconclusive: 8.49 µM [inhibitor, partial curve]	
CC1(C)C2CC=C(/C=N/NC(=O)c3ccc(O)cc3)C1C2 (centres undefined)	inconclusive: 26.9 µM [inhibitor, single point]	
